The source gives no read counts; variants with many changes may rest on few reads.
B1: OR4K15 (parent)
chain: GUUAACGGUCAUAGGCCAUGGAAACUAGGAGCACCAUUUCGCUGCCAGUGAAGAAAUGAACAAAGAAAAUCUGGGCCAGGCAGGCAUCAAAAGAAAUAGUCUUGCGCUCAACCAGAAAGUCUGUAAUCAUUUUAAGGGUA

Variants of: B1
Assay: self-cleavage, relative activity (ratio to wild type); higher = more cleavage; in vitro, sequencing; the parent is a self-cleaving ribozyme

Variant | self-cleavage
U2G A18G A30G A55G A59G A114G U132A | 0.4
A23C U37C A98C G106A A118G | 0
A18U A47G G74A A89U A117G | 0.22
A33U A54U C76U A126G U132C | 0.08
U3C A22G A30G U103C | 0.38
U37G G41U A110U | 2.64
A33U U97C U139C | 1.71
U49C A52G A111G | 0.01
A52G A64U A111G A126G | 0.02
A5G A36U A51G A59U A90G | 0.37
A22U A36C A60G A94G A95G | 1.31
A62C A89G A90U | 0.86
U9C A23G A62G A69U | 1.31
U2C A22G A23G A68G A92G | 0.6
A33G U72C A98G G99A | 0.08
U43C U70C U102G | 0.09
A13G U72C A125G A135G | 0.13
U12A A62G U127C | 1.03
C34U U39C U43A A111U | 0.14
A24G A89G G136U | 1.34
A55U A59G A96G U120C | 0.71
A4G A11G A52G A90G | 0.49
A23G A33C U103C | 0.89
U9C A24G A52U U72A U132C | 0.12

Variant | self-cleavage
U38C A66U U72A | 0.04
U9C U38C A51G U139A | 1.34
A23G A51G A116G | 0.68
A33G A89U U108C | 0.02
G73U A86U A118G | 0.11
A62G A78U U131C | 0.09
U9A U12C A135U | 1.98
A22G A23U G75A | 0.29
A62U A96G A111G | 0.01
U9C U37C A86U | 0.63
A23G G48A A63G G74A A114U | 0.05
U49C A56G A60G A67G A89C | 1.46
A51G A68G U70C A134U | 0.61
U26C A54G A64G A116G U120C | 0.34
A36G U103C A125G | 0.3
A47U A64G A118G | 0.22
A5G A22G A94U A117G | 1.41
A59G A68G G80A A86U | 0.42
U12C A27G A60G | 1.54
A59U A98G A118G | 0.16
A54G U102C C105U | 0.55
A11C U37C A55G U87C A96G A116G U122C | 0.87
A22G A24C U38C | 1.27
U9C U108C A118G | 0.02

Variant | self-cleavage
A24G U38C U39A A62G G83A U131C | 1.18
U19C U38C A86G | 0.98
A5G A13G U19C A30G U38C U49C | 0.49
A33U A51U A96G U132C | 1.92
A64G A90G A96G | 0.59
U43C A86G A92U U103A U133A | 0.11
C6A U37C U39C A118G | 0.8
G1U U38C U39C U43G | 1.78
A5G A63G A135U | 0.29
A24U A47G A63G U72C A94G | 0.34
U87C U120C U122C | 1.24
A24G A62G A69G A90G A96G | 1.07
A11U U37C U49C A111C | 0.01
U49C U108C A125G U132C | 0
U49C A64G A67G A117G | 2.35
A56C A111G U127C | 0
A22G A51G A96G | 1.73
A27G U37C U87C U108C | 0.02
A23G U39C A62G | 1.24
A11C U39C A62G U72A C81U A92C U124C A140U | 0.03
U2C A5G U39C A52G A86U | 0.28
A18G A62U U100C A118G | 0.62
U26C A33G G65U A126U U132C | 0.58
A63G A96G A111G | 0.02

Variant | self-cleavage
U2A U43C A56G | 0.84
U3C A24G U108A | 0.05
A90G A95G U102C | 2.51
A66G A90G U127A | 2.36
U49A A59C A66G A91G U122C | 1.13
U70C U108C G138A | 0
A22U A52G A63G U122C U124C | 0.11
A13G A95G U103G | 0.25
U9A U124C U131G | 0.18
A24G A51U A68G | 1.36
A33C A56G A62G | 0.63
A51G A60G A86G U102C | 1.74
U100G U108G A111G A114G U122C | 0
U39C U49C A78U A114G U132C | 0.02
U49G U57C A63G | 0.76
A52G A54G A95U | 0.83
U37C U39C U122C A129G | 1.09
A22G A60G A67G | 0.9
A59G A86G C88U A92G | 0.88
A22G U120C U132C | 1.04
U26C U57C U70C | 0.37
U49C A52G G106U | 0
U19C G44A U49C A90G A114G | 0.1
A36G G58A U87C A96G A118G | 1.3

Variant | self-cleavage
U87C A89G C105U A118G | 0.02
A82G A96G U103G U122C U131C | 0.03
A47G U97C U122C | 0.61
G29U A51U A55U A67G A95G U122C A129G | 2.06
A24G U37C A51G A54G A95G | 0.64
A62C A90G A96G A126G | 0.39
G8U G29U A117G | 2.01
U19C A64G A67G A82G U87C | 0.23
A66G A69G A117G | 0.78
U38C U57A A68G U108C A114G | 0
A5C A55G U57C A95G A116G | 0.79
U43C A94G U124C U130C | 0.48
U2C U39C C45U | 1.08
A13G G83A U103A U122C | 0
C61A A66G A78G | 0.14
U3C A18G U132C | 1.75
A5G A62U A114U | 0.12
A22G A30G U97A A110G | 0.12
A13C G79C U100C U120C | 0.21
A5C G20A A36C | 0.99
U2G U19A U49A U108C | 0.04
A92G A94U U131C | 0.72
A56G A62G A95G | 1.14
A23G A24G A47G A67G A94G | 0.71

Variant | self-cleavage
G7C A86G U122C | 0.68
A67G A98G U108C | 0.01
A47G A60G A78G A89G U122A | 0.09
G7A A13U A18U U37C A94G C109U U133A | 0.37
A13G A86G U100C | 1.73
A59U U87A U97A A111G | 0.03
A22U U102C A111G U122C | 0.01
G7A A24C U39C A69G | 1.14
A24G A64G A95G | 0.92
U19A A23G A51G A140G | 1.26
A13U A63G A68G U108C U131C | 0.02
A5G A23U A52G A62G A64G C109U | 0.19
A23G A30G U38A G123A | 1.73
C34U A69U U72C | 0.19
A4G U37C A47G U49A A78G A111G | 0.1
A5G A47G U102C | 1.36
A54G A64G C105U U108C U122C A134U | 0
A52U A82C U120C | 0.09
A18G A90G A95G | 1.56
A11U A59G A89C | 0.45
U9C A95G U97C | 0.65
A52G A78G A89G U108C | 0.02
A13G U38C A95U A111G | 0.09
A22G U37C A52G U72C U102A A110C A114G | 0.18

Variant | self-cleavage
A23G A33G A89U A110G | 0.09
U38C A54G A59G A89G A94G | 1.14
C10U A56G U103C | 0.16
A23G U43A A96G A129G | 1.25
A23G A54G A68G A89G A96G | 1.13
A68G U87C U132C | 0.65
U70C A110G A118G | 0.06
A33G A60G A78G U97A | 0.13
A24U A30G A94G | 1.13
A5G A33G U43A A59G A89G U108C A126G | 0
U9A U26C A78U A91G C105U | 0.02
G20A A51G A82G A92G C105U | 0.05
U2C A47U U102A | 0.5
U9C G14U A51G A86U A92G A96G A118G A129G | 0.29
A18U A22G A51G U122C | 0.92
A56G A69G A110G U133C | 0.09
A30U A117G U132C | 2.27
A64G A67G A110G | 0.25
U43C A64C A118G | 2.16
A27G A90G A126G | 0.67
C6U A51U U57A A114G G137A | 0.41
A5G A86G A110U | 0.86
U3A A23C A94U | 1.27

Source: the RNAGym collection of RNA variant scans (doi:10.7554/elife.90254)
